From PubChem BioAssay AID720709 (National Center for Advancing Translational Sciences (NCATS), 2013)
Among all 360,000 compounds or so, about 520 (0.14%) were called active. Inconclusive results, whose numbers are uncertain, are shown with a selection of clear calls. Calls come from the whole dose curve; as a rule, active = well fitted inhibition curve with a large enough effect; inconclusive = small, poorly fitted or top-dose-only effect; inactive = no such curve, though single readings can be large or run the other way. No potency is given beside an inconclusive call; the fits are too rough.

molecular target: Rap guanine nucleotide exchange factor 3 (Homo sapiens) (UniProt O95398); test: qHTS for Antagonist of cAMP-regulated guanine nucleotide exchange factor 3 (EPAC1): primary screen; conditions: EPAC1 GEF assay, Rap1b-BODIPY-GDP exchange fluorescence; activity change, negative = inhibition: at 115 µM (top of the series); note: nearly all actives have a fitted effect of over 50% in size;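 for activity change, negative = inhibition: plate controls were vehicle for no effect and positive control for full effect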
UniProt O95398, sequence (O95398 whole entry, looked up): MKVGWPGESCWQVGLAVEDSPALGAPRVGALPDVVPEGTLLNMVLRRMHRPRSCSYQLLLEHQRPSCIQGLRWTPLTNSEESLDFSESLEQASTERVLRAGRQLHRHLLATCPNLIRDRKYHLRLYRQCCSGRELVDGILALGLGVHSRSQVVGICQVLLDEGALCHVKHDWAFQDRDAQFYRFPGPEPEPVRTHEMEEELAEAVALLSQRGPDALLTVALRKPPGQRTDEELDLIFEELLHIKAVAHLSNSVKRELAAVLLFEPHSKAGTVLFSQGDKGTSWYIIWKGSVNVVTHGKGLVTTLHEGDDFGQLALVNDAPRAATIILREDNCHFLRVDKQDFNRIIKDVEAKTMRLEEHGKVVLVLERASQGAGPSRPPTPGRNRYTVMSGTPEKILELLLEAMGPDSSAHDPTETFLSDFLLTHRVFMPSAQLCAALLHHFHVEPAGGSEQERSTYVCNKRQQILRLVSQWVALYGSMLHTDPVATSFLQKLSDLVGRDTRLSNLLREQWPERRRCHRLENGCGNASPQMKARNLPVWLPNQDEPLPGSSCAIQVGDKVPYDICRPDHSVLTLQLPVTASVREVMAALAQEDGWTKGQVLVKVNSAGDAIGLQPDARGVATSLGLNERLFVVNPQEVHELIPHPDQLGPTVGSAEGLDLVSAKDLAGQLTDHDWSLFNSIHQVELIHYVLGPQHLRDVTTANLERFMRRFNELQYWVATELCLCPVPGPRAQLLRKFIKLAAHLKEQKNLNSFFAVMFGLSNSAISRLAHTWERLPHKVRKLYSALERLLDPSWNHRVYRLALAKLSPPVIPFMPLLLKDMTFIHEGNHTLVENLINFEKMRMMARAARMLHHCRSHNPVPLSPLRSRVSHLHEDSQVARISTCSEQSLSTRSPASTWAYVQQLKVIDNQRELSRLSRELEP
Potency is the fitted concentration of half-maximal effect; tags give direction and shape of the fitted curve.

SMILES	Potency	activity change, negative = inhibition
CC1CCN(c2ccc3nnc(CCC(=O)Nc4ccc(F)cc4)n3n2)CC1	inconclusive [inhibitor, partial curve, poor fit]	
N#Cc1c(SC(C(=O)O)c2ccccc2)nc2c(c1-c1cccs1)CCCC2 (stereo unspecified)	inconclusive [inhibitor, full curve, poor fit]	
CSc1nc(-c2ccc(N(C)C)cc2)c(C#N)c(=O)n1C	inconclusive [inhibitor, single point]	
CC1=C(C(=O)OC2CCCC2)C(c2coc3ccc(C)cc3c2=O)C2=C(CCCC2=O)N1 (stereo unspecified)	inconclusive [inhibitor, full curve]	
COc1ccc(C2=NOC(Cn3nc(C(=O)NCc4ccccc4OC)cc3-c3ccccc3)C2)cc1 (stereo unspecified)	inconclusive [inhibitor, single point]	
CCCOc1ccc(/C(O)=C2/C(=O)C(=O)N(c3ccccn3)C2c2ccc(OC)cc2)cc1C (stereo unspecified)	inconclusive [inhibitor, single point]	
O=C(COc1ccc(/C=N/NC(=O)c2ccc(O)cc2)cc1)Nc1cccc([N+](=O)[O-])c1	inconclusive [inhibitor, full curve, poor fit]	
CC(=O)c1ccc(N2CCN(C(=O)c3cc(-c4cccnc4)nc4ccc(Br)cc34)CC2)cc1	inconclusive [inhibitor, single point]	
CCc1ccc(NC2=CC(=O)CC(C)(C)C2)cc1	inconclusive [inhibitor, single point]	
COc1ccc(NS(=O)(=O)c2ccc(NC(=S)NC(=O)c3cccc(F)c3)cc2)nn1		inactive: -2.98%
COc1ccc(N2Cc3cccc(C(=O)NC(C)CCc4ccco4)c3C2=O)cc1 (stereo unspecified)	inconclusive [inhibitor, partial curve]	
CCC(=O)c1ccc(N2CCC(C)CC2)c(F)c1	inconclusive [inhibitor, single point]	
COc1ccc(OCC(=O)N/N=C/c2ccncc2)cc1	inconclusive [inhibitor, single point]	
O=C(NCc1ccco1)c1cc2c(s1)CSC2	inconclusive [inhibitor, partial curve]	
CCCCCCCCC(=O)N1C(C)CCC1C (stereo unspecified)		inactive: 11.5%
CN1N=C(C(=O)N=c2sc3ccccc3n2C)CCC1=O		inactive: -13.2%
CCC(=Cc1ccc(CC)cn1)CC	inconclusive [inhibitor, partial curve, poor fit]	
C#CCNC(=O)C[C@@H]1C[C@@]2(C(=O)OCC)CCC=C2N(Cc2ccc(Cl)cc2Cl)C1=O		inactive: -14%
COc1cccc2c(=O)c3cccc(N)c3[nH]c12	inconclusive [inhibitor, single point]	
CC1CCCN(Cc2c(O)ccc3c2O/C(=C\c2ccco2)C3=O)C1 (stereo unspecified)	inconclusive [inhibitor, partial curve]	
CC(C)Oc1ccccc1/C=N/NC(=O)c1ccccc1Cl	inconclusive [inhibitor, partial curve, poor fit]	
O=C1NC(=S)SC1=Cc1ccccc1Cl	inconclusive [inhibitor, full curve]	

SMILES	Potency	activity change, negative = inhibition
O/N=C(/c1ccccc1)c1cc2cc(Br)cc(Br)c2o1	inconclusive [inhibitor, partial curve]	
Cc1ccc(C(=O)c2ccc(N3CCOCC3)c(F)c2)cc1	inconclusive [inhibitor, single point]	
CCC(=O)N[C@@H]1C=C[C@@H](CC(=O)NCc2ccccc2F)O[C@@H]1CO		inactive: -2.67%
Cc1ccc(C(=O)OCC(=O)Nc2nc(-c3ccccc3)cs2)cc1NC(=O)c1ccco1	inconclusive [inhibitor, partial curve]	
O=C(Nc1cccnc1)C12CC3CC(CC(C3)C1)C2	inconclusive [inhibitor, single point]	
Cc1cc2c(cc(C(=O)OC(C)C(=O)NCc3ccc(F)cc3)n2C)o1 (stereo unspecified)	inconclusive [inhibitor, single point]	
Cc1cc(-c2nnc(SCC(=O)Nc3ccc(F)cc3F)n2N)n[nH]1	inconclusive [inhibitor, full curve, poor fit]	
O=C(O)c1ccc(NC2=C/C(=N/S(=O)(=O)c3ccccc3)c3ccccc3C2=O)cc1	inconclusive [inhibitor, partial curve]	
CN1CCN(C(=S)c2ccc(-c3cccc([N+](=O)[O-])c3)o2)CC1		inactive: 0.52%
CC1CCN(C2=C(NS(=O)(=O)c3ccccc3)C(=O)c3ccccc3C2=O)CC1	inconclusive [inhibitor, full curve, poor fit]	
COc1ccccc1NC(=O)CSc1sc2c(O)cc(=O)[nH]c2c1C#N	inconclusive [inhibitor, full curve]	
Cc1cccc(C)c1NC(=O)C1(C)CN(S(C)(=O)=O)CC(=O)N1CCc1ccccc1F (stereo unspecified)		inactive: 7.75%
Cc1ccc(OCCn2cc(C=O)c3ccccc32)cc1	inconclusive [inhibitor, partial curve, poor fit]	
CCOc1ccc(N2CC(C(=O)NCCN3C(=O)S/C(=C\c4cccnc4)C3=O)CC2=O)cc1 (stereo unspecified)	inconclusive [inhibitor, single point]	
C=CCn1c(COc2cccc(C)c2C)nnc1SCC(=O)N1CCN(c2ccccc2)CC1	inconclusive [inhibitor, partial curve]	
C/C(=N\N1CCN(C)CC1)c1ccc(Cl)c(Cl)c1	inconclusive [inhibitor, single point]	
Cc1ccc(C)c(S(=O)(=O)Nc2cc3c4c(c2)CCC(=O)N4CCC3)c1	inconclusive [inhibitor, single point]	
COc1ccc2c(c1)-c1nc(/N=C/c3ccc(O)c(OC)c3)sc1CC2	inconclusive [inhibitor, full curve, poor fit]	
O=C1OC(c2ccc(O)cc2)(c2ccccc2O)c2ccccc21 (stereo unspecified)	inconclusive [inhibitor, partial curve]	
CC(C)(C)c1ccc(C(=O)Nc2cccc3ncccc23)cc1	inconclusive [inhibitor, single point]	
CCn1c(N2CCN(C(=O)Nc3ccc(F)cc3)CC2)nc2ccccc21	inconclusive [inhibitor, single point]	
Cc1cccnc1NC(=S)NC(=O)c1cccs1	inconclusive [inhibitor, partial curve]	

SMILES	Potency	activity change, negative = inhibition
O=[N+]([O-])c1ccc(Cl)cc1N1CCOCC1	inconclusive [inhibitor, single point]	
COc1ccc(C2=NN3C(C2)c2ccccc2OC3c2cccs2)cc1 (stereo unspecified)	inconclusive [inhibitor, single point]	
CC(C)(C)c1c(Cl)c(O)c(-c2ccccc2)c(=O)n1-c1ccccc1	active: 79.4 µM	
CC1CCc2nc(NC(=O)c3ccco3)sc2C1 (stereo unspecified)		inactive: -12.6%
CC(C)c1ccccc1NC(=O)COC(=O)C1(C)CC1(Cl)Cl (stereo unspecified)		inactive: -0.869%
N#Cc1nc(COc2ccccc2Cl)oc1NCc1cccnc1		inactive: 6.2%
O=C(NCc1cccc(F)c1)c1cccc2c1C(=O)c1ccc(N3CCOCC3)cc1S2(=O)=O		inactive: -12%
O=C(Cc1cccs1)Nc1ccc(S(=O)(=O)N2CCCCC2)cc1	inconclusive [inhibitor, partial curve, poor fit]	
Cc1ccc(C)c(NC(=O)C2CC(O)CN2C(=O)Oc2ccccc2)c1 (stereo unspecified)		inactive: -14.6%
Cc1cccc(-c2nc(Nc3ccc(N4CCOCC4)cc3)c3ccccc3n2)c1	inconclusive [inhibitor, partial curve]	
CNC(=O)c1ccsc1NC(=O)c1sc2ccccc2c1Cl	inconclusive [inhibitor, single point]	
Cc1cccc(C2c3[nH]c4ccccc4c3CCN2C(=O)c2cn(C)c3ccccc3c2=O)n1 (stereo unspecified)	inconclusive [inhibitor, single point]	
O=C(O)CN1C(=O)/C(=C\c2cc(Br)ccc2OCc2ccccc2F)SC1=S	inconclusive [inhibitor, partial curve, poor fit]	
COc1cccc(CNc2nc3nc(C)c(Cl)c(C)n3n2)c1		inactive: -1.02%
CCOc1ccc(NC(=O)C2=C(C)NC(=S)NC2c2ccc(O)c(OC)c2)cc1 (stereo unspecified)	inconclusive [inhibitor, single point]	
Cc1cccc(-c2nc(Nc3cccc(O)c3)c3ccccc3n2)c1		inconclusive: -31.4% [inhibitor]
O=C(NC(=S)NCCN1CCOCC1)c1ccccc1	inconclusive [inhibitor, partial curve, poor fit]	
Cn1cnnc1SCC(=O)c1cccc([N+](=O)[O-])c1	inconclusive [inhibitor, partial curve]	
CC(=O)c1ccc(S(=O)(=O)N2CCN(CCOc3ccc(Br)cc3)CC2)cc1	inconclusive [inhibitor, single point]	
C[C@@H]1CN([C@H](C)CO)S(=O)(=O)c2ccc(C3=CCCCC3)cc2O[C@H]1CN(C)C(=O)Cc1cccnc1		inactive: 9.3%
COC(=O)c1cnn(-c2ccccc2)c1-n1cccc1C=O	inconclusive [inhibitor, partial curve, poor fit]	
COc1ccc(OC)c(-c2cc(C3CCN(c4cc(Cl)nc(N)n4)CC3)[nH]n2)c1	inconclusive [inhibitor, partial curve, poor fit]	
